The whole screen tested about 45,000 compounds, of which about 65 (0.1%) were called active. Calls come from the whole dose curve; as a rule, active = well fitted activation curve with a large enough effect; inconclusive = small, poorly fitted or top-dose-only effect; inactive = no such curve, though single readings can be large or run the other way. The list shows a part of the results.
target: Galactocerebrosidase (Homo sapiens) (UniProt P54803); experiment: A Novel Cell-Based Assay to Identify Small Molecules for B -Galactocerebrosidase; conditions: 145M-Twi-hGALC-G270D cells, HMU-beta-Gal fluorescence, 48 h; series mostly up to 57.5 µM; activation: at the top concentration; note: 0% is about no effect; nearly all actives have a fitted effect of over 65% in size
UniProt P54803, sequence (P54803 whole entry, looked up): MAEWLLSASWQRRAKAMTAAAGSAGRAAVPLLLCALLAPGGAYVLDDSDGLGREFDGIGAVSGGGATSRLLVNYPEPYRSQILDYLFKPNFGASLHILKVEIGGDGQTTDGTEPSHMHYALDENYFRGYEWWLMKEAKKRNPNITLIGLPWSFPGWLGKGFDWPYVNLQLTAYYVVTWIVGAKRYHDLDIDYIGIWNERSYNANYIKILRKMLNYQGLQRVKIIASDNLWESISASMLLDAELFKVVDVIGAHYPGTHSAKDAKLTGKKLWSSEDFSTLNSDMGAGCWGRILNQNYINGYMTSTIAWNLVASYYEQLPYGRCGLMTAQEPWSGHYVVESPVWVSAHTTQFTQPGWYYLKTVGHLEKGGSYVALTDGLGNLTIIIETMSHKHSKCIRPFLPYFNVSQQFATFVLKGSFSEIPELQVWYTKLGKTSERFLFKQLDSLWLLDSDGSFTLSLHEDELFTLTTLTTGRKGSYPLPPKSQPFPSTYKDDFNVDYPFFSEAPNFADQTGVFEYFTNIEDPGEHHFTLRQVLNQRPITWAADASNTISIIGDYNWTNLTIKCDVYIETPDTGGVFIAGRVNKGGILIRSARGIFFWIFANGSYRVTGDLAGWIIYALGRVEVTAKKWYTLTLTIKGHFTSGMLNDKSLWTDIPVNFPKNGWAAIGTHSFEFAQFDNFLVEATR
Method in brief: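 qHTS, 1536-well; 145M-Twi-hGALC-G270D cells (WT line also made) in DMEM/F12 + 10% FBS; compound incubation on live cells; HMU-β-gal 0.1 mM final, pH 5.2, NaTC; carbonate stop; fluorescence increase = enhanced residual activity.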

activation, inactive:
CCCCc1ccc(-n2nc3cc(C)c(NC(=O)Cc4ccccc4)cc3n2)cc1 -18.1%
CCOC(=O)c1c(C)oc2nc(C)nc(NCc3ccccc3Cl)c12 -19.5%
COC(=O)c1ccccc1NC(=O)Cn1cc(S(=O)(=O)Cc2ccccc2F)c2ccccc21 3.18%
CCc1ccc(N(CC)C(=O)c2ccc3c(=O)n4c(nc3c2)CCCCC4)cc1 -10.1%
COC(=O)c1c(-c2cccs2)csc1NC(=O)c1ccc(Cl)cc1 -26.1%
COCCN1C(=O)c2[nH]nc(-c3ccccc3O)c2C1c1ccc(OCc2ccccc2)c(OC)c1 (configuration not stated) 0.929%
Cc1cccc(CN2C(=O)c3ccccc3Sc3ccc(C(=O)N4CCCC4)cc32)c1 -35.1%
O=C(Nc1cc(Cl)cc(Cl)c1)c1ccc(F)c(S(=O)(=O)NC2CCCC2)c1 -10.7%
CCOC(=O)c1c(NC(=O)COc2ccccc2F)sc2c1CCCC2 0.746%
CCOC(=O)c1c(NC(=O)/C=C/c2ccccc2)sc2c1CCCC2 -13.4%
COc1ccc(N2CCN(C(=O)c3ccc(C)c(NC(=O)c4nsc5ccccc45)c3)CC2)cc1 -14.2%
COc1ccc(OC)c(S(=O)(=O)NCCc2sc(-c3ccc(C)cc3)nc2C)c1 2.74%
Cc1ccc2c(=O)c(C(=O)c3ccc(F)cc3)cn(CC(=O)NCc3ccccc3)c2n1 -10.8%
COc1cccc(Cn2c(CNC(=O)C(C)C)nc3cccnc32)c1 -6.23%
COc1ccccc1Nc1nn2c(=O)c3ccc(C(=O)NCc4cccs4)cc3nc2s1 -18.7%
COC(=O)c1cc(S(=O)(=O)NCC2CCN(Cc3cc(C)ccc3C)CC2)c[nH]1 -15.9%
COc1ccc(-c2cn3c(n2)sc2cc(C(=O)NCc4ccccc4OC)ccc23)cc1 -10.1%
CC(C)(C)OC(=O)N1CCC(c2c(C(=O)NCc3ccccn3)cnn2-c2ccccc2)CC1 -9.28%
COc1ccc(C(=O)Nc2ccc(-c3nc4ncccc4o3)cc2)cc1 -19.7%
Cc1cc(NC(=O)CCCn2c(C)c3cnn(-c4ccccc4)c(=O)c3c2C)ccc1Br -13.2%
CCOc1ccccc1NC(=O)CN1C(=O)CC(c2ccco2)Sc2ccccc21 (configuration not stated) -9.15%
Cc1cc(C)cc(C(=O)N(Cc2nc(-c3ccc(Cl)cc3)no2)C(C)C)c1 -25.6%
O=S(=O)(c1ccc2ccccc2c1)n1nc(-c2ccco2)nc1NCc1ccc(F)cc1 -6.08%
Cc1ccc(C(=O)Nc2ccc(-c3nc4ccccc4s3)c(O)c2)c(C)c1 -28.7%
COCCCNC(=O)c1c(NC(=O)c2nc(S(C)(=O)=O)ncc2Cl)sc2c1CCCC2 -19.5%
COCCNC(=O)C(=O)NCC(c1ccc2c(c1)OCO2)N1CCOCC1 (configuration not stated) -12.3%
CCN(C(=O)CSc1ncc(S(=O)(=O)c2ccc(C)c(Cl)c2)c(=O)[nH]1)c1cccc(C)c1 3.01%

Source: PubChem BioAssay AID1159614 (National Center for Advancing Translational Sciences (NCATS), 2016)
